Measurements as given in PubChem BioAssay AID226 (DTP/NCI, 2004).
Toxic doses and inconclusive results are not listed. A number of entries come with more than one value. They are shown here; other results are not. There may be further records. Values given together repeat one measurement (runs, samples, wells, individuals or studies).

Test system: B6C3F1 mice, intracerebral ependymoblastoma, median survival T/C
Experiment: NCI In Vivo Anticancer Drug Screen. Data for tumor model Ependymoblastoma (intracerebral) in B6C3F1 mice
Conditions: endpoint: median survival time, higher = longer survival
Method: The antitumor activity of compounds was measured in mice bearing transplantable tumors. Survival or tumor size were measured and the results are expressed as the measurement made in the treated group (T) divided by the measurement made in the vehicle treated control group (C). The tumor model used in this assay is Ependymoblastoma (intracerebral) in B6C3F1 mice

[1] = dose: 64.0 mg/kg/injection, schedule: Q01DX005 (ip), vehicle: saline with Tween-80

Structure (SMILES): COC(=O)c1ccc(N=NN(C)C)cc1
- T/C (dose: 64.0 mg/kg/injection, schedule: Q01DX005 (ip), vehicle: saline + alcohol): 121 % of control and 164 % of control

Structure (SMILES): O=NN(CCCl)C(=O)NCCCl
- T/C (dose: 4.0 mg/kg/injection, schedule: Q01DX005 (ip), vehicle: saline with Tween-80): 120 % of control and 154 % of control

Structure (SMILES): O=NN(CCCl)C(=O)NC1CCC(=O)NC1=O (stereo not drawn)
- T/C (dose: 2.0 mg/kg/injection, schedule: Q01DX005 (ip), vehicle: suspension in saline): 110 % of control and 157 % of control

Structure (SMILES): N[C@@H](Cc1ccc(N(CCCl)CCCl)cc1)C(=O)O
- T/C (dose: 4.0 mg/kg/injection, schedule: Q01DX005 (ip), vehicle: saline): 114 % of control and 154 % of control

Structure (SMILES): CN(N=O)C(N)=O
- T/C (dose: 8.0 mg/kg/injection, schedule: Q01DX005 (ip), vehicle: Klucel (hydroxypropylcellulose) (HPC)): 120 % of control and 152 % of control
- T/C (dose: 64.0 mg/kg/injection, schedule: Q01DX001 (ip), vehicle: saline + alcohol): 118 % of control and 159 % of control

Structure (SMILES): CN(C)/N=N/c1nc[nH]c1C(N)=O
- T/C (dose: 32.0 mg/kg/injection, schedule: Q01DX005 (ip), vehicle: saline with Tween-80): 110 % of control and 151 % of control
- T/C [1]: 109 % of control and 160 % of control
- T/C (dose: 256.0 mg/kg/injection, schedule: Q01DX005 (ip), vehicle: saline with Tween-80): 123 % of control and 156 % of control

Structure (SMILES): CN(C)N=Nc1ccc([N+](=O)[O-])cc1C(N)=O
- T/C [1]: 100 % of control and 153 % of control
- T/C (dose: 128.0 mg/kg/injection, schedule: Q01DX005 (ip), vehicle: saline with Tween-80): 123 % of control and 181 % of control

Structure (SMILES): O=c1n(CC2CO2)c(=O)n(CC2CO2)c(=O)n1CC1CO1 (stereo not drawn)
- T/C (dose: 25.0 mg/kg/injection, schedule: Q01DX009 (ip), vehicle: saline): 123 % of control and 155 % of control
- T/C (dose: 40.0 mg/kg/injection, schedule: Q01DX009 (ip), vehicle: saline): 117 % of control and 160 % of control
